# Source: PubChem BioAssay AID1457 (National Center for Advancing Translational Sciences (NCATS), 2008)
# About 730 (0.35%) of roughly 210,000 compounds were called active. Inconclusive means that the source gave no clear call. Such entries were picked first, then a sample of the others. Calls follow the shape of the dose curve; as a rule, active = well fitted inhibition curve with a large enough effect; inconclusive = small, poorly fitted or top-dose-only effect; inactive = no such curve, though single readings can be large or run the other way. A potency beside an inconclusive call is a rough fit, not a confirmed value. More than one record can exist for a structure, and the calls need not agree.
# Assay: qHTS Assay for Identifying the Cell-Membrane Permeable IMPase Inhibitors: Potentiation with Lithium; also: nearly all actives have a fitted effect of over 50% in size;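 as to activity, negative = IMPase inhibition: plate controls were basal vehicle for no effect and high inhibitor control for full effect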
# Conditions: CHO-M1 cells, IP1 TR-FRET (IP-One), carbachol + lithium; series mostly up to 59.4 µM; activity, negative = IMPase inhibition: at the top concentration
# Text: NIH Chemical Genomics Center [NCGC]
# NIH Molecular Libraries Probe Production centers Network [MLPCN]
# Assay Submitter (PI): Wei Zheng
# Lithium has been widely used for the treatment of bipolar disorder. But lithium has a narrow therapeutic index and it can cause side effects such as thirst, weight gain, tremor, polyuria and memory problems. Although the mechanism for lithium action in treatment of bipolar disorder is still not fully understood, inhibition of inositol monophosphatase (IMPase) and the subsequent depletion of the inositol pool in living cells have been implicated as the primary therapeutic benefit of lithium therapy. Therefore, a selective IMPase inhibitor with reduced side effects might be a good drug candidate to replace lithium for the treatment of bipolar disorder. Several IMPase inhibitors have been discovered previously. However, they are not suitable for therapeutic use because of their poor cell membrane penetrability or oral bioavailability; the development of new cell-permeable IMPase inhibitors is needed.
# IMPase catalyzes the hydrolysis of inositol-1-phosphate (IP1) to release free inositol. Binding of an agonist to a Gq coupled GPCR results in the activation of PLC, which hydrolyzes the PIP2 to form inositol-1,4,5-trisphosphate (IP3) and diacyl glycerol (DAG). While DAG activates protein kinase C (PKC), IP3 triggers the elevation of intracellular free Ca2+. The IP3 is very rapidly inactivated by hydrolysis to IP2, IP1 and then inositol by a series of enzymes including IMPase. Free inositols are used for synthesis of PI and thus start another inositol cycle.
# To identify new cell-permeable IMPase inhibitors, we developed a cell-based IMPase assay in which the cytosolic IP1 is measured by a time-resolved fluorescence resonance energy transfer (TR-FRET) assay. In this assay, an IP1 specific antibody is used to detect the labeled IP1 tracer. When the cell lysate contains the elevated IP1 due to the inhibition of IMPase, the TR-FRET between the labeled antibody and IP1 tracer is disrupted resulting in a reduction in the total signal. Since the TR-FRET is used, this cell-based assay is a homogenous assay without cell wash and medium change that is suitable for assay miniaturization and HTS. In this particular assay, a small amount of lithium is added to potentiate the response of weak activators.
# NCGC Assay Protocol Summary:
# A Chinese hamster ovary (CHO) cell line stably expressing the M1 receptor (CHO-M1) was obtained from ATCC and maintained in F-12 Kaighn's media (Invitrogen, Carlsbad, CA) supplemented with 10 % FBS, 100 units/ml penicillin, 100 ug/ml streptomycin and 250 ug/ml geneticin at 37C, 5% CO2 in a humidified atmosphere. Before the assay, aliquots of cells were frozen and stored at -135C. The assay was performed in 1536-well format. Data are reported for both the ratio of the two emission wavelengths, and also for the component 'donor' channel, Em2=620. […] AC50 values were determined from concentration-response data modeled with the standard Hill equation.
# (1) Frozen CHO-M1 cells were thaw, washed once with fresh media and resuspended in F12K media containing 10% FBS, 100 units/ml penicillin and 100 ug/ml streptomycin. Cells were plated at 4ul/well (2000 cells) in white, tissue culture treated 1536-well plates, and then cultured at 37C, 5 % CO2 for 16 to 30 hours.
# (2) Add 23 nl/well of compound in DMSO solution. The final titration for each compound was between 0.6 nM and 46 uM.
# (4) Incubation at 37C, 5 % CO2 for 30 min.
# (5) Add 1 ul/well of d2-conjugated IP1 (d2-IP1) and 1 ul/well of Eu+ cryptate conjugated anti-IP1 antibody (Eu+-Ab) prepared in the cell lysis buffer, both from the IP-One kit (Cisbio, MA).
# (6) Incubate at room temperature for 10 minutes.
# (7) Detect the assay plate (Ex = 320, Em1 =665 and Em2 620) in a ViewLux plate reader.
# Potency is read from the fitted curve at half-maximal effect.
Structure (SMILES),Potency,"activity, negative = IMPase inhibition"
O=C(Cn1ccc2ccccc2c1=O)Nc1ccc2c(c1)OCO2,"inconclusive: 11.2 µM [inhibitor, single point]",
N#CCCn1c(=O)c(-c2cccs2)nc2cnc(Oc3cccc(Cl)c3)nc21,"inconclusive: 28.2 µM [inhibitor, single point]",
O=C(CSc1nccc(=O)[nH]1)c1ccco1,,inactive: -1.83%
O=C(O)c1ccc(-n2c(-c3cc(-c4ccco4)[nH]n3)n[nH]c2=S)cc1,,inactive: -6.26% [at 38.3 µM]
Cc1c(C(=O)N2CCCC2)nnn1-c1nonc1N,,inactive: -6.49%
OC1CCCCC1,,inactive: -10.4%
N#CCCSC(=S)[C@H]1CCCC1=N,,inactive: -8.45%
O=C1CN(C(=O)COC(=O)c2ccc[n+]([O-])c2)c2ccccc2N1,,inactive: 7.55%
Cn1ncc(Br)c1C(=O)Nc1ccc(Br)cn1,"inconclusive: 22.4 µM [inhibitor, single point]",
COc1ccc(Nc2cc(C(=O)NCc3ccco3)c3ccccc3n2)cc1,"inconclusive: 14.1 µM [inhibitor, single point]",
CC(C)CNC(=O)CSc1nnc(-c2cccc(S(=O)(=O)N3CCCCC3)c2)o1,"inconclusive: 14.1 µM [inhibitor, partial curve]",
COc1cc(S(=O)(=O)N2CCOCC2)cc(C(=O)c2nccn2C)c1OC,,inactive: -2.63% [at 38.3 µM]
CCc1cc2cc3c(cc2nc1SCC(=O)Nc1cc(C)on1)OCO3,"inconclusive: 22.4 µM [inhibitor, single point]",
Cc1cc(Nc2ccccc2Cl)n2nnnc2n1,"inconclusive: 28.2 µM [inhibitor, single point]",
O=C(NCc1ccccc1Cl)c1ccc2c(c1)SC1=NS(=O)(=O)CCN12,,inactive: -0.918%
COc1ccc(C2C(C(C)=O)=C(O)C(=O)N2c2nccs2)cc1 (stereo not drawn),"inconclusive: 12.6 µM [inhibitor, single point]",
CCOc1ccc2cc(C#N)c(SCC(=O)OC)nc2c1,"inconclusive: 12.6 µM [inhibitor, single point]",
CCCCC1=CC2=C(OC(C)=O)C(=O)C(C)(OC(=O)CCC(=O)OC)C(=O)C2=CO1 (stereo not drawn),,inactive: -2.14%
COc1ccc(-c2nc3ncccn3c2Nc2ccccc2)cc1,"inconclusive: 2.82 µM [inhibitor, single point]",
COc1ccc2ncc(S(=O)(=O)c3ccccc3)c(N3CCC4(CC3)OCCO4)c2c1,,inactive: 14.8%
CC(=O)c1cc(C#N)c(NCc2cc(-c3ccccc3)no2)nc1C,"inconclusive: 22.4 µM [inhibitor, single point]",
O=C(Nc1ccc2oc(-c3ccncc3)nc2c1)c1ccccc1,"inconclusive: 28.2 µM [inhibitor, single point]",
CCn1nc2cc(C(=O)NCC34CC5CC(CC(C5)C3)C4)ccc2c1OC,"inconclusive: 28.2 µM [inhibitor, single point]",
CC(N)(C(=O)O)c1ccc(P(=O)(O)O)cc1 (stereo not drawn),,inactive: -0.24%
O=c1c2cn[nH]c2[nH]c(=S)n1-c1cccc2ccccc12,"inconclusive: 11.2 µM [inhibitor, single point]",

Structure (SMILES),Potency,"activity, negative = IMPase inhibition"
CCOC(=O)CC(=O)CSc1nc2ccccc2c(=O)n1-c1ccc(C(=O)NCCOC)cc1,"inconclusive: 6.31 µM [inhibitor, full curve, poor fit]",
COc1ccc(-c2cc3nc[nH]c(=O)c3s2)cc1,"inconclusive: 28.2 µM [inhibitor, single point]",
N#CC1=C2SCN(c3ccc(F)cc3)CN2C(=O)CC1c1cccc(F)c1 (stereo not drawn),"inconclusive: 0.891 µM [inhibitor, full curve, poor fit]",
CCOC(=O)c1cc(Br)c(=O)n2ccccc12,"inconclusive: 8.91 µM [inhibitor, partial curve]",
N#CC1=C(N)OC2=C(C(=O)CC(c3ccccc3)C2)C1c1ccc2c(c1)OCO2 (stereo not drawn),,inactive: 14.3%
O=C(COC(=O)c1ccc(-c2cnc3ccccc3n2)cc1)c1ccccc1,"inconclusive: 28.2 µM [inhibitor, single point]",
Cc1ccc2cc(C#N)c(SCC(=O)NNC(=O)Cc3ccccc3)nc2c1,active: 12.6 µM,
Cc1noc(C)c1-c1nc(Nc2ccc(F)cc2)c2ccccc2n1,"inconclusive: 11.2 µM [inhibitor, single point]",
c1ccn(-c2ccc(N3CCOCC3)cc2)c1,"inconclusive: 28.2 µM [inhibitor, single point]",
CS(=O)(=O)c1nc(S(=O)(=O)c2ccc(Cl)cc2)c(NCc2ccccn2)s1,,inactive: -2.21%
CC1CN(C(=S)NC(=O)c2ccc([N+](=O)[O-])cc2)CC(C)O1 (stereo not drawn),,inactive: -5.88% [at 38.3 µM]
COc1ccc(CCN(Cc2cc3ccc(C)cc3n3nnnc23)C(C)=O)cc1OC,,inactive: -1.73%
Cc1cc(C)c2cc(C#N)c(NCCOC(=O)c3ccccc3C)nc2c1,"inconclusive: 31.6 µM [inhibitor, single point]",
Cc1ccccc1Cn1cc(NC(=O)c2cc(-c3cccs3)on2)cn1,"inconclusive: 31.6 µM [inhibitor, partial curve]",
COC(=O)c1c(NC(=O)c2ccccc2)sc(C(=O)c2ccccc2)c1C,"inconclusive: 15.8 µM [inhibitor, partial curve]",
Cc1nn(-c2ccc(Cl)cc2)c2sc(C(=O)c3c(N)n(C)c(=O)n(C)c3=O)cc12,active: 12.6 µM,
COc1ccc(CCNC(=O)Cc2cc(=O)[nH]c(=O)[nH]2)cc1OC,"inconclusive: 12.6 µM [inhibitor, partial curve]",
Cc1cccc(NCc2ccc(O)c3ncccc23)c1C,,inactive: -2.82%
COCCn1c(=S)[nH]c2cc(C(=O)NC(C)C)ccc2c1=O,"inconclusive: 22.4 µM [inhibitor, single point]",
C=CCn1c(C)cc(C(=O)CSc2nc3ccccc3c(=O)[nH]2)c1C,"inconclusive: 28.2 µM [inhibitor, single point]",
Cc1cc(/C=C2\SC(=Nc3ccccc3)NC2=O)c(C)n1-c1ccc(S(N)(=O)=O)cc1,,inactive: 27.6% [at 38.3 µM]
c1ccc(CCc2nn3c(Cn4nnc5ccccc54)nnc3s2)cc1,,inactive: 7.36% [at 38.3 µM]
CC(=O)c1ccc(N=C2SCCCN2C(=O)C2CCCC2)cc1,,inactive: 0.988%
CCCCn1c(C(C)NC(=O)CC)nc2ccccc21 (stereo not drawn),,inactive: 4.64% [at 38.3 µM]
COC(=O)CC1C(C)(C)C(OC(C)=O)C2CC3C4CC(=O)OC(c5ccoc5)[C@]4(C)CCC3[C@@]1(C)C2=O (stereo partly drawn),,inactive: 10.1%

Structure (SMILES),Potency,"activity, negative = IMPase inhibition"
Cn1c(=O)c(-c2ccc(Cl)cc2)nc2cncnc21,"inconclusive: 22.4 µM [inhibitor, single point]",
CCN(CC)C(=O)c1sc2nc(N3CCOCC3)c3c(c2c1N)CCCC3,"inconclusive: 28.2 µM [inhibitor, single point]",
Nc1ccc(-c2nc3ccc(-c4nc5ccc(N)cc5[nH]4)cc3[nH]2)cc1,active: 10 µM,
CC(=O)C1=C(O)CC(c2ccccc2)CC1=NCCc1c(C)[nH]c2ccc(C)cc12 (stereo not drawn),"inconclusive: 11.2 µM [inhibitor, partial curve, poor fit]",
Cc1ccc(CNC(=O)c2cc3c(=O)n(C)c4ccccc4c3n2C)cc1,"inconclusive: 28.2 µM [inhibitor, single point]",
COc1ccc(-c2cc(C(F)(F)F)nc(SCC(=O)NCc3cccs3)n2)cc1,"inconclusive: 11.2 µM [inhibitor, single point]",
COCCNC(=O)CSc1cc(=O)n(C)c2cc(Cl)ccc12,"inconclusive: 10 µM [inhibitor, single point]",
CC(C)Oc1ccc(C2C(C(=O)c3ccco3)=C(O)C(=O)N2Cc2cccnc2)cc1 (stereo not drawn),"inconclusive: 7.94 µM [inhibitor, partial curve]",
Nc1nc(-c2ccc(Cl)cc2)nnc1-c1ccc(Br)cc1,"inconclusive: 28.2 µM [inhibitor, single point]",
Cc1ccc2oc(-c3cc(NC(=O)c4ncn[nH]4)ccc3O)nc2c1,"inconclusive: 20 µM [inhibitor, single point]",
Cc1c(Cl)c(-c2n[nH]c(=S)n2-c2ccccc2)nn1C,"inconclusive: 8.91 µM [inhibitor, partial curve]",
O=C(O)c1ccc2oc(SCC(=O)N3CCCCC3)nc2c1,,inactive: 5.39%
CCOC(=O)N1CCC(NC(=O)c2ccc3c(c2)N(Cc2ccccc2)CCS3)CC1,"inconclusive: 11.2 µM [inhibitor, single point]",
O=C(/C=C/c1ccco1)Nc1nnc(-c2ccco2)s1,,inactive: -3.88%
COc1cccc(-c2nnc(SC(C(=O)c3c[nH]c4ccccc34)c3ccccc3)n2C)c1 (stereo not drawn),,inactive: 4.27%
CC(=O)c1ccc(N2CC(C)(C)C2=O)cc1,"inconclusive: 5.01 µM [inhibitor, single point]",
CC1(C)OC(c2ccccc2)=C/C(=C/C=C2C(=O)c3ccccc3C2=O)O1,,inactive: 10.5%
O=C(NCSc1ccnc(SCNC(=O)c2ccc(F)cc2)n1)c1ccc(F)cc1,,inactive: 0.879%
CC1CN(C(=O)c2cccc(C(=O)N3CC(C)OC(C)C3)c2)CC(C)O1 (stereo not drawn),"inconclusive: 0.0794 µM [inhibitor, full curve]",
COc1ccc(-c2nc(CS(=O)(=O)CC(=O)Nc3ccc(Cl)cc3)c(C)o2)cc1,"inconclusive: 10 µM [inhibitor, single point]",
O=C(CCC(=O)c1cccs1)NCc1cccnc1,"inconclusive: 1.41 µM [inhibitor, partial curve]",
COC(=O)c1c(NC(=O)CN2CCN(c3ccccc3OC)CC2)c2c(C)cccc2n1C,"inconclusive: 31.6 µM [inhibitor, single point]",
Nc1c(S(=O)(=O)c2cccs2)c2nc3ccccc3nc2n1CCc1ccccc1,"inconclusive: 31.6 µM [inhibitor, single point]",
